Measured values from PubChem BioAssay AID504332 (National Center for Advancing Translational Sciences (NCATS), 2011).
The campaign covered roughly 350,000 compounds. About 31,000 (8.9%) were called active. The shares of active, inactive and inconclusive entries below differ from those in the screen. The call rests on the fitted dose curve; in most records, active means well fitted inhibition curve with a large enough effect; inconclusive means small, poorly fitted or top-dose-only effect; inactive means no such curve, though single readings can be large or run the other way. Potencies of inconclusive entries are doubtful fits and often do not repeat. Where a structure was tested more than once in an assay, its records may differ in their call.

The compounds below were run against Histone-lysine N-methyltransferase EHMT2 (Homo sapiens) (UniProt Q96KQ7) (assay: qHTS Assay for Inhibitors of Histone Lysine Methyltransferase G9a). Conditions: G9a H3K9 monomethylation, AlphaScreen, 2 h; activity, negative = inhibition: at 59 µM (top of the series) unless noted.
UniProt Q96KQ7, sequence (Q96KQ7 whole entry, looked up): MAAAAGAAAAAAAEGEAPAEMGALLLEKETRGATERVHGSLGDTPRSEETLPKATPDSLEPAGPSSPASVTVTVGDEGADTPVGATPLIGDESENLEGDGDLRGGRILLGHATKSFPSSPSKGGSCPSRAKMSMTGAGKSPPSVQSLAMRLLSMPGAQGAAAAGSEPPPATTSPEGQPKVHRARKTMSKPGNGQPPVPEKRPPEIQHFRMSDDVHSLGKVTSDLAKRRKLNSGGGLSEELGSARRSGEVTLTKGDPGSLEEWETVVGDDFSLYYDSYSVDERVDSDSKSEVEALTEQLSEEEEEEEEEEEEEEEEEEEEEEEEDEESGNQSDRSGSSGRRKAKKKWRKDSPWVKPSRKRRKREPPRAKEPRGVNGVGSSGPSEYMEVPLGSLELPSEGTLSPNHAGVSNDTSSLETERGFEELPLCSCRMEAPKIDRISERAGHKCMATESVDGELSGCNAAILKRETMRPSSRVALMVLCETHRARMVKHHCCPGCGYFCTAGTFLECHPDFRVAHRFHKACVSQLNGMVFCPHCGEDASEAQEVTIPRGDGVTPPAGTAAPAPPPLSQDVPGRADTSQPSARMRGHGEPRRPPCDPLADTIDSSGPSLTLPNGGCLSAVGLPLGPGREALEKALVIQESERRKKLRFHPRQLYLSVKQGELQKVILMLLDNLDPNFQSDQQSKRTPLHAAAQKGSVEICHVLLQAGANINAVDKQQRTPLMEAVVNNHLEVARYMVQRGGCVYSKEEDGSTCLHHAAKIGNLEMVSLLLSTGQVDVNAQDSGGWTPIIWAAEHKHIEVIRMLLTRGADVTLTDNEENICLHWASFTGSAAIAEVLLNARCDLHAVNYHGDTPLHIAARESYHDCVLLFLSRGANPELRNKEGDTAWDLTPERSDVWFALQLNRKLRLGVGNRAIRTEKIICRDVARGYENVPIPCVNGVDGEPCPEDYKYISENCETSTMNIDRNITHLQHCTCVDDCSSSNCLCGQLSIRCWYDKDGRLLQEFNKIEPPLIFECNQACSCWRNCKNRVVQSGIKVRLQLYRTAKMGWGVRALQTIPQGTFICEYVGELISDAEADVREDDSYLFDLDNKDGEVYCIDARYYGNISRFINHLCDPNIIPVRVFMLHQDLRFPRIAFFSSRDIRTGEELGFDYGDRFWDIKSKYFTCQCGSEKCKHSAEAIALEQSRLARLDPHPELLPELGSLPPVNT
How it was run: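 Methyltransferase reactions run at room temperature for 2 h (20 nM enzyme, 500 nM biotin-H3K9 peptide, 20 uM SAM) after a 15 min compound preincubation; product detected by AlphaScreen beads and anti-H3K9me1 antibody.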
Further: nearly all actives have a fitted effect of over 75% in size.
On the % scale 0 is the no-effect control and ±100 the full control effect; potency means the concentration at half of the fitted maximal effect; tags describe the fitted curve by direction and shape.

Structure (SMILES)	Potency	activity, negative = inhibition
CCOc1ccc2nc(NC(=O)CCn3cccc3)sc2c1	inconclusive: 56.2 µM [inhibitor, partial curve, poor fit]	–
O=C(c1cccc(COCC(F)(F)C(F)F)c1)N1CCN(c2ccccc2)CC1	inconclusive: 25.1 µM [inhibitor, single point]	–
CSc1sc(C(=O)Nc2ccc(F)cc2F)c2c1C=CCC2	inconclusive: 89.1 µM [inhibitor, partial curve, poor fit]	–
COc1ccc(Nc2ncnc3c2cnn3Cc2ccccc2)cc1	active: 50.1 µM	–
Cc1c(NC(=O)c2noc(C(C)C)c2[N+](=O)[O-])c(=O)n(-c2ccccc2)n1C	inconclusive: 100 µM [inhibitor, single point]	–
CCCCn1nc(C(=O)N(C)CC(=O)Nc2cccc(F)c2)c2ccccc2c1=O	active: 35.5 µM	–
CN(C)CCSc1nc(-c2ccccc2)nc2c1COC(C)(C)C2	inactive	–
Cc1cccc(OCCn2cc(/C=N/NC(=O)c3ccncc3)c3ccccc32)c1	inactive	–
O=C(CNC1CCCCCC1)Nc1ccccc1N1CCCCC1	inconclusive: 8.91 µM [inhibitor, single point]	–
Cc1cc(N2CCN(C)CC2)nc2ccc(NC(=S)NCCC(C)C)cc12	active: 50.1 µM	–
CC1CCN(C(=O)CSc2nnc(-c3ccccc3F)o2)CC1	inconclusive: 79.4 µM [inhibitor, single point]	–
Cc1ccc(CCNC(=O)c2nnn(-c3cc(C)cc(C)c3)c2N)cc1	inactive	–
CN1CCC(N2CCN(c3cccc(C(F)(F)F)c3)CC2)CC1	inconclusive: 89.1 µM [inhibitor, single point]	–
Cc1ccc(Sc2ccc(C(=O)N(C)C)cc2[N+](=O)[O-])cc1	inconclusive: 28.2 µM [inhibitor, partial curve]	–
COc1cc(CN2CCN(Cc3cccc(OC)c3OC)CC2)cc(OC)c1	active: 44.7 µM	–
Cc1c(N2C(=O)/C(=C3/C(=O)N(C)c4ccccc43)SC2=S)c(=O)n(-c2ccccc2)n1C	inconclusive: 89.1 µM [inhibitor, single point]	–
CC(=O)N1c2ccc(S(=O)(=O)NCCC(=O)Nc3ccc(OC(F)(F)F)cc3)cc2CC1C (configuration not stated)	inactive	–
COc1ccc(N2CCN(C(=O)C3CC(=O)N(c4ccc(C)cc4)C3)CC2)cc1 (configuration not stated)	inconclusive: 50.1 µM [inhibitor, partial curve, poor fit]	–
NC(=O)CCn1c2ccccc2c2ccccc21	inconclusive: 44.7 µM [inhibitor, partial curve, poor fit]	–
COC(=O)NNC(=O)C12CC3CC(CC(C3)C1)C2	inactive	–
CCOC(=O)CSc1nnc(Cc2ccccc2)n1Cc1ccco1	inconclusive: 50.1 µM [inhibitor, partial curve]	–
COc1ccc(C(C)=O)cc1COC(=O)Cc1n[nH]c(=O)c2ccccc12	inconclusive: 44.7 µM [inhibitor, partial curve]	–
N#Cc1nc(Cc2ccccc2)oc1N1CCN(c2ccccc2)CC1	–	inconclusive: -79.1% [inhibitor]

Structure (SMILES)	Potency	activity, negative = inhibition
COc1ccc(OC)c(CNC(=O)CCCn2c(=O)c3cccn3c3cccnc32)c1	inactive	–
CCN(CC)c1ccc(C(=O)NN)cc1	inactive	–
COC(=O)c1ccc(NC(=O)CO/N=C2\CCCc3nonc32)cc1	inconclusive: 8.91 µM [inhibitor, partial curve, poor fit]	–
Cc1cc(Cl)c(S(=O)(=O)Nc2ccon2)cc1OCC(=O)NC1CCCCC1	inactive	–
CN1CCN(CC(=O)Nc2nc(-c3c[nH]c4ccccc34)cs2)CC1	inconclusive: 12.6 µM [inhibitor, partial curve, poor fit]	–
COc1ccc(C2c3c(ncn(Cc4ccco4)c3=N)Oc3ccc4ccccc4c32)cc1 (configuration not stated)	inconclusive: 31.6 µM [inhibitor, single point]	–
O=C(NCC1CCCN(Cc2cccc(OCCO)c2)C1)c1ccc(F)cc1 (configuration not stated)	inconclusive: 79.4 µM [inhibitor, partial curve, poor fit]	–
Cc1ccc(O)c(NC(=O)CCS(=O)(=O)c2nc(-c3cccs3)cc(C(F)(F)F)n2)c1	inconclusive: 14.1 µM [inhibitor, partial curve]	–
Cc1cccc(NC(=O)CCCSc2nc3ccccc3[nH]2)c1	inconclusive: 39.8 µM [inhibitor, single point]	–
COc1ccc(N2CCN(c3ncnc4scc(-c5ccccc5)c34)CC2)cc1	active: 7.94 µM	–
Cn1c(-c2nonc2N)nc2ccccc21	active: 39.8 µM	–
O=C(c1cnccn1)N1CCC2(CC1)CN(Cc1ccccc1)C2	–	inactive: -3.23% [at 12.7 µM]
CCOC(=O)c1[nH]cnc1C(=O)Nc1ccncc1	–	inconclusive: -104% [inhibitor]
Cc1ccc(NC(=S)Nn2cnnc2)c(C)c1	active: 10 µM	–
COc1cc2c(CCNC(C)=O)c[nH]c2cc1O	active: 20 µM	inactive: 33.5% [at 12.7 µM]
N#Cc1ccc(CN2CC3(CCN(C(=O)c4cnccn4)CC3)C2)cc1	–	inactive: -1.78% [at 12.7 µM]
Cc1ccc(C(c2nnnn2C(C)(C)C)N2CCC(C)CC2)cc1 (configuration not stated)	inconclusive: 17.8 µM [inhibitor, single point]	–
Oc1ccc(Cl)cc1/C=N/c1nccs1	inconclusive: 50.1 µM [inhibitor, partial curve, poor fit]	–
CCOc1ccc2[nH]c(=O)c(CN(Cc3ccccc3OC)C(=O)c3ccccc3)cc2c1	inactive	–
O=C1C2C3C=CC(c4ccccc4)(C2C(=O)N1c1cccc(Cl)c1)C1C(=O)N(c2cccc(Cl)c2)C(=O)C31 (configuration not stated)	inconclusive: 28.2 µM [inhibitor, single point]	–
COC(=O)c1ccc(NC(=O)C2CCN(c3ncnc4c3nc3n4CCCCC3)CC2)cc1	inactive	–
CC1CCN(S(=O)(=O)c2cn(C)c(=O)n(C)c2=O)CC1	inconclusive: 0.794 µM [inhibitor, partial curve, poor fit]	–
CCOC(=O)c1cc(-c2ccccc2)sc1NC(=O)CSc1nncs1	inconclusive: 50.1 µM [inhibitor, partial curve, poor fit]	–
